Legend:
GST-SHLD3 = biological target: T1, GST-SHLD3 (human, UniProt Q6ZNX1 1-250); test: pull-down
T1 sequence (looked up): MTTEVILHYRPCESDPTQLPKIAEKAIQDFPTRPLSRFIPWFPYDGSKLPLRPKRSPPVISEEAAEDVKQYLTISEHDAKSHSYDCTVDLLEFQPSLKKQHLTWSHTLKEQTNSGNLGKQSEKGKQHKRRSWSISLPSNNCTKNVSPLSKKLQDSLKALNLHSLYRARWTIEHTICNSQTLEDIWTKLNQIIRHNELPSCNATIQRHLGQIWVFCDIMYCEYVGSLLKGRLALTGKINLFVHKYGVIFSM

[1] = biological target: T2, TRIP13 (purified, tags cleaved) (UniProt Q15645 1-432); test: pull-down
T2 sequence (looked up): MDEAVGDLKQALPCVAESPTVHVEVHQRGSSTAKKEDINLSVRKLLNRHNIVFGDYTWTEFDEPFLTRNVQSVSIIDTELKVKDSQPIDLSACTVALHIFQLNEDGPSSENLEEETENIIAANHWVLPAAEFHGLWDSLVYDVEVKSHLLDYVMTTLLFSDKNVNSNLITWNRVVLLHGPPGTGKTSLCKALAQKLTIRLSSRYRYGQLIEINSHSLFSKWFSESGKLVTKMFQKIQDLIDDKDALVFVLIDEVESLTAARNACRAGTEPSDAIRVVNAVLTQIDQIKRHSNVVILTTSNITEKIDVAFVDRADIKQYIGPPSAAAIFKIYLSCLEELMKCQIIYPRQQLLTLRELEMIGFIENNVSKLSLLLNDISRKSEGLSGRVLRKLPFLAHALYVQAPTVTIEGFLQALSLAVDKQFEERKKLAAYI

B1: REV7^R124A (His-tagged, purified from E. coli) (natural protein)
chain: not shown
B1: binds (GST-SHLD3); binds [1].
